Test results from PubChem BioAssay AID651820 (National Center for Advancing Translational Sciences (NCATS), 2012).
Values joined by “and” are separate entries in the source; they are usually repeats but may differ in a detail not shown here. Equal values may be shown once. Hit rate of the full screen: of about 340,000 compounds, about 12,000 (3.5%) were called active. The inconclusive results got no clear call from the source; some entries with a clear call stand among them for comparison. The call rests on the fitted dose curve; in most records, active means well fitted inhibition curve with a large enough effect; inconclusive means small, poorly fitted or top-dose-only effect, or another doubt; inactive means no such curve, though single readings can be large or run the other way. A potency beside an inconclusive call is a rough fit, not a confirmed value.
On the % scale 0 is the no-effect control and ±100 the full control effect; potency means the concentration at half of the fitted maximal effect; tags describe the fitted curve by direction and shape.

Test: qHTS Assay for Inhibitors of Hepatitis C Virus (HCV)
Settings: Huh7.5.1 HCVcc-Cre (HCVcc is cell-culture hepatitis C virus) infection, luciferase reporter, 44 h; activity change, negative = inhibition: at 41.8 µM (top of the series) unless noted
Summary of the method: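 Cells (1,000/well) were plated 4 h before compound, then infected with HCVcc-Cre virus (~0.5 moi). After 44 h further culture, infection was read as luciferase luminescence following a 15 min substrate incubation at room temperature.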
With `COc1c(C(O)CC(C)C)ccc2c1C(=O)OCc1cc(C)cc(O)c1O2` (configuration not stated) the Potency was active: 2.24 µM. With `COc1cc(OC)cc(C(=O)Nc2ccc(Nc3ccccc3)cc2)c1` the Potency was active: 8.91 µM. With `Cc1ccccc1OCC(=O)N(Cc1nc(-c2ccccc2)no1)C(C)C` the “activity change, negative = inhibition” value was inactive: -0.155%. For `O=C(CSC(=S)N1CCOCC1)Nc1nc(-c2ccccc2)c(-c2ccccc2)o1`, the Potency was inconclusive: 6.31 µM [inhibitor, partial curve]. For `Cc1cc(/C=N/n2cnnc2)c(C)n1-c1ccc(OCc2ccc(Cl)cc2)cc1`, the Potency was active: 7.94 µM. With `CSCCC(NC(=O)c1ccccc1Br)C(=O)NNC(=O)c1cc(C)oc1C` (configuration not stated) the “activity change, negative = inhibition” value was inactive: -14.4%. With `COC(=O)[C@H](C(C)C)N(Cc1ccccc1)S(=O)(=O)CCNC1CCCC1` the Potency was inconclusive: 31.6 µM [inhibitor, single point]. For `Cc1cccc(C)c1OCC(O)CNC(C)c1ccccc1` (configuration not stated), the Potency was active: 12.6 µM. With `Cc1ccc(Oc2nnc(-c3ccc(C)cc3)c3ccccc23)cc1` the Potency was inconclusive: 20 µM [inhibitor, single point]. For `CCOC(=O)c1c(NC(C)=O)sc2c(OCC(O)CNC(C)(C)C)c(Br)ccc12` (configuration not stated), the Potency was active: 4.47 µM. For `COc1ccc(-c2nnc(SCC(=O)NC3CCCCC3)n2N)cc1`, the “activity change, negative = inhibition” value was inactive: 21.6%. In the case of `Cc1cccnc1Nc1nc(-c2ccc(O)c(O)c2)cs1`, the Potency is reported as inconclusive: 22.4 µM [inhibitor, single point]. With `CCN(CC(=O)Nc1cc(Cl)ccc1C)C(=O)COc1ccccc1F` the “activity change, negative = inhibition” value was inactive: -20.6%. For `CC(C)CCNC(=O)C(=O)Nc1ccc2c(c1)N(S(=O)(=O)c1cccs1)CCC2`, the Potency was inconclusive: 10 µM [inhibitor, partial curve]. With `COc1cc(NC(=S)NC(C)=O)ccc1NC(=O)C(C)C` the Potency was inconclusive: 31.6 µM [inhibitor, single point]. In the case of `COCC1CCN(C(=O)c2cc(COc3ccc4ncccc4c3)on2)CC1`, the Potency is reported as active: 1.12 µM. In the case of `Cc1ccc(Cn2ncc3c(N4CCN(c5ccc(C)cc5)CC4)ncnc32)cc1`, the Potency is reported as inconclusive: 10 µM [inhibitor, partial curve]. For `CC(=O)COc1cc(C)cc2oc(=O)c(C)c(C)c12`, the Potency was inconclusive: 0.316 µM [inhibitor, full curve, poor fit]. In the case of `Cc1ccccc1CNS(=O)(=O)c1csc(C(N)=O)c1`, the “activity change, negative = inhibition” value is reported as inactive: 9%. In the case of `Cc1nc(NCCc2ccc(O)cc2)c2nnn(Cc3ccccc3)c2n1`, the Potency is reported as inconclusive: 31.6 µM [inhibitor, single point]. In the case of `Cc1ccc(C)c(NC(=O)CN(C)C(=O)C2=NNC(=O)CC2)c1`, the “activity change, negative = inhibition” value is reported as inactive: 6.18%. In the case of `CCOC(=O)c1cc(-c2ccc(C)cc2)n(CCC(=O)NCCN(C)C)c1C`, the Potency is reported as inconclusive: 11.2 µM [inhibitor, single point]. For `CC(C)c1ccc(S(=O)(=O)/N=C2/C=C(Sc3ncn[nH]3)C(=O)c3ccccc32)cc1`, the Potency was active: 2.51 µM. With `COc1cccc(C2=CC(=O)CC(C)(C)C2)c1` the Potency was inconclusive: 3.55 µM [inhibitor, partial curve, poor fit]. In the case of `O=C(NCc1cccs1)C1CCCN1C(=O)Nc1ccccc1[N+](=O)[O-]` (configuration not stated), the “activity change, negative = inhibition” value is reported as inactive: 1.78%. For `COc1ccccc1N1CCN(C(=O)c2cccc(C(=O)N3CCN(c4ccccc4OC)CC3)c2)CC1`, the Potency was inconclusive: 11.2 µM [inhibitor, single point]. In the case of `Nc1c(C(=O)c2ccc(Br)s2)oc2ccccc12`, the “activity change, negative = inhibition” value is reported as inactive: -4.05%. With `CSCCC(NS(=O)(=O)c1ccc(Cl)cc1)C(=O)OCc1c(Cl)cccc1Cl` (configuration not stated) the Potency was inconclusive: 10 µM [inhibitor, partial curve]. In the case of `O=C(OCc1nc2ccccc2s1)C1CCN(S(=O)(=O)c2cccs2)CC1`, the “activity change, negative = inhibition” value is reported as inactive: 17.1%. With `CCOc1ccc(CCNC(=O)Cn2c(-c3nonc3N)nc3ccccc32)cc1OCC` the Potency was active: 14.1 µM. With `Cc1cc([N+](=O)[O-])ccc1NC1CCCC1` the Potency was inconclusive: 6.31 µM [inhibitor, partial curve]. With `COc1ccc(N(CC(=O)N2CCN(c3cccc(C)c3C)CC2)S(=O)(=O)c2c(C)noc2C)cc1` the Potency was inconclusive: 31.6 µM [inhibitor, single point]. With `COc1cccc(C(=O)OCC(=O)c2ccc(S(=O)(=O)N3CCCCC3)cc2)c1OC` the “activity change, negative = inhibition” value was inactive: 6.21%. For `CC1=C(C(=O)Nc2ccc(CC(=O)NCc3ccccc3C)cc2)SCCO1`, the “activity change, negative = inhibition” value was inactive: -13.4%. In the case of `CCOc1cc(N2CCOCC2)c(OCC)cc1NC(=O)COC(=O)CCOc1ccc(C)cc1`, the “activity change, negative = inhibition” value is reported as inactive: 5.73%. In the case of `COC(=O)c1c(NC(=O)c2nn(C)cc2Cl)sc2c1CCCC2`, the Potency is reported as inconclusive: 3.98 µM [inhibitor, full curve, poor fit]. For `C=CC[C@@H](CC(=O)N[C@@H](CO)Cc1ccccc1)C(=O)NCCOC(=O)[C@@H](CC=C)CC(=O)OC(C)(C)C`, the “activity change, negative = inhibition” value was inactive: 21.7%. For `CC1CN(CC(=O)Nc2nc(-c3ccc(Cl)cc3)cs2)CC(C)O1` (configuration not stated), the Potency was inconclusive: 22.4 µM [inhibitor, single point]. With `COCCN(CC(=O)Nc1cccc(C)c1C)C(=O)c1cc(-c2ccncc2)nc2ccccc12` the “activity change, negative = inhibition” value was inactive: -21.7%. With `Cc1ccc(-n2c(N)c(C(=O)Nc3ccccc3F)sc2=S)cc1C` the Potency was inconclusive: 31.6 µM [inhibitor, single point]. With `CC(C)(C)c1ccc2c(c1)OC(C(=O)N/N=C/c1ccc([N+](=O)[O-])o1)CO2` (configuration not stated) the Potency was inconclusive: 31.6 µM [inhibitor, single point]. With `COC(=O)c1sc(NC(=O)CSc2nnc(Cn3nnc4ccccc43)n2C)nc1C` the Potency was inconclusive: 31.6 µM [inhibitor, single point]. In the case of `COCCn1c(=O)[nH]c2cc(C(=O)NCCN3CCN(c4cccc(Cl)c4)CC3)ccc2c1=O`, the Potency is reported as inconclusive: 5.62 µM [inhibitor, single point] and inconclusive: 31.6 µM [inhibitor, single point]. For `COc1ccc(Cl)cc1C(=O)NNC(=S)NC(=O)c1cc(-c2ccc(Cl)cc2)nc2ccccc12`, the Potency was inconclusive: 12.6 µM [inhibitor, partial curve]. With `Cc1nn(-c2ccccc2)c(C)c1/C=N/n1c(-c2ccc(Cl)cc2)n[nH]c1=S` the “activity change, negative = inhibition” value was inactive: -22.2%. For `COc1ccc2[nH]c(CN3CCC(CO)(CCOc4ccccc4)CC3)c(C)c2c1`, the Potency was active: 10 µM. With `Cc1occc1C(=O)Nc1cc(C(F)(F)F)ccc1Cl` the Potency was inconclusive: 7.08 µM [inhibitor, partial curve]. For `CCCC(=O)OCCNc1cc(Sc2nccn2C)c2nonc2c1[N+](=O)[O-]`, the Potency was inconclusive: 2.51 µM [inhibitor, full curve]. In the case of `Cc1cc([N+](=O)[O-])ccc1NC(=O)c1cc2ccccc2o1`, the “activity change, negative = inhibition” value is reported as inactive: 0.719%. With `O=C(NC1CCCCCCC1)C1c2ccccc2C(=O)N1Cc1cccs1` (configuration not stated) the “activity change, negative = inhibition” value was inactive: -1.52%. In the case of `COc1ccc(C(CNC(=O)Cc2cc(OC)c(OC)c(OC)c2)N2CCCC2)cc1` (configuration not stated), the “activity change, negative = inhibition” value is reported as inactive: -2.49%. In the case of `CCN(CC)C(=O)CSc1nc(-c2cccs2)cc(-c2cccs2)c1C#N`, the Potency is reported as active: 2.51 µM. For `O=C(Nc1cccc(C(F)(F)F)c1)C1CCCN1S(=O)(=O)c1cccc2cccnc12` (configuration not stated), the Potency was inconclusive: 10 µM [inhibitor, partial curve]. In the case of `COC(=O)c1cccc(Nc2ncnc3sccc23)c1`, the Potency is reported as inconclusive: 31.6 µM [inhibitor, single point]. With `Nc1nc(SCC(=O)Nc2ccc([N+](=O)[O-])cc2)[nH]c(=O)c1NC(=O)c1ccc(Br)o1` the “activity change, negative = inhibition” value was inactive: 2.86%. For `COc1ccc2nc(C)cc(Nc3ccc(C)cc3)c2c1`, the Potency was inconclusive: 31.6 µM [inhibitor, single point]. In the case of `Cc1c(C(=O)Oc2cccc3ccccc23)cnn1-c1ccccc1`, the Potency is reported as inconclusive: 31.6 µM [inhibitor, single point]. In the case of `Cc1ccc(NC(=S)N2CCCC(O)C2)cc1` (configuration not stated), the “activity change, negative = inhibition” value is reported as inactive: 16.5%. With `O=C1N[C@@H](c2ccccc2)COC(=O)[C@H](Cc2ccc(F)cc2)CC/C=C/C[C@H]1CC(=O)N(CCO)Cc1ccccc1` the Potency was inconclusive: 35.5 µM [inhibitor, single point]. With `CC(C(=O)Nc1ccc(Br)cc1C(=O)c1ccccc1)N1CCCCC1` (configuration not stated) the Potency was inconclusive: 31.6 µM [inhibitor, single point]. For `Cc1ncc(CN2CCC(CO)(Cc3ccccc3)CC2)s1`, the Potency was inconclusive: 31.6 µM [inhibitor, single point]. For `Cc1ccc(S(=O)(=O)CCC(=O)OCc2cc(C)ccc2C)cc1`, the activity change, negative = inhibition was inconclusive: -44.9% [inhibitor]. For `COc1cccc(-c2nnc3sc(-c4ccccn4)nn23)c1`, the “activity change, negative = inhibition” value was inactive: -16%. With `Cc1ccc(NC(=O)CN(C)C(=O)C(c2ccccc2)c2ccccc2)cc1` the Potency was inconclusive: 5.62 µM [inhibitor, full curve]. In the case of `CCOC(=O)C1CCN(CCC(=O)Nc2ccc(Br)c(C)c2)CC1`, the Potency is reported as inconclusive: 5.62 µM [inhibitor, partial curve]. For `COc1ccc(N(CCC(=O)NCCc2ccccc2)S(=O)(=O)c2ccc(C)cc2C)cc1`, the Potency was inconclusive: 15.8 µM [inhibitor, single point]. With `CCOc1ccc(NC(=O)CN(C)C(=O)c2cc(-c3cccs3)nn2-c2ccccc2)cc1OCC` the Potency was inconclusive: 1.78 µM [inhibitor, partial curve]. In the case of `c1ccc2c(-c3ccncc3)c[nH]c2c1`, the Potency is reported as active: 7.94 µM. For `CC(C)c1nc(SCc2c(F)cccc2Cl)c2c(=O)n(C)c(=O)n(C)c2n1`, the Potency was inconclusive: 12.6 µM [inhibitor, partial curve]. In the case of `O=C(COC(=O)CCOc1ccccc1)NCc1ccco1`, the “activity change, negative = inhibition” value is reported as inactive: 4.87%. In the case of `CC(=O)c1c(C)[nH]c(C(=O)OCC(=O)N2CCc3ccccc3C2)c1C`, the Potency is reported as inconclusive: 11.2 µM [inhibitor, partial curve]. With `CC(=O)Nc1ccc(NC(=O)COC(=O)c2ccc(S(=O)(=O)NCc3ccco3)cc2)cc1` the Potency was inconclusive: 31.6 µM [inhibitor, single point].
